The other results are listed elsewhere or left out.
Test system: T1, C. trachomatis L2/434/Bu expressing GFP (CTL2-GFP)
T1 construct: L2/434/Bu GFP intracellular growth in HeLa cells
Design: species or system HeLa; C. trachomatis total inclusion area by high-content imaging, normalised to DMSO
Details: total inclusion area; 28.5 h, 10 µM; inhibitor
Summary of the method: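 Following bulk GFP and resorufin fluorescence reads, infected cells were fixed, Hoechst-stained and imaged on a high-content platform. Inclusion total area and number per well served as growth proxies; nuclei counts indicated host viability. MICs were derived as for the fluorescence assay.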

| Structure (SMILES) | % of control remaining |
| --- | --- |
| CCn1nc(C(C)C)cc1C(=O)N1CC2(CCNCC2)CC1C(=O)O (stereo not shown) [CBK307179] | 98.4743 |
| Cc1ccc(C(C)CCN2CC3CCCN3C[C@H]2C)o1 (stereo partly shown) [CBK285467] | 107.126 |
| Cc1ccc(OCCSc2nnc3[nH]c4ccccc4n23)cc1 [CBK267922] | 109.299 |
| CCCOc1ccc(-c2cc(C(=O)NO)n[nH]2)cc1C [CBK288362] | 44.3885 |
| COC(=O)c1ccccc1OCCc1csc(NS(=O)(=O)c2cccc(Cl)c2C)n1 [CBK023735] | 89.5756 |
| O=S(=O)(Nc1ccc(C(O)(C(F)(F)F)C(F)(F)F)cc1)c1ccc(Cl)c(Cl)c1 [CBK062102] | 105.528 |
| COc1cccc(CC(=O)N2CCCC2c2nc3ccccc3[nH]2)c1 (stereo not shown) [CBK283665] | 115.475 |
| CCN(CC)c1ccc(SC)n1C [CBK020929] | 48.5931 |
| CCn1cc(C2CN(S(=O)(=O)c3cccc(COC)c3)CCO2)cn1 (stereo not shown) [CBK304222] | 16.2388 |
| c1ccc(-c2n[nH]c(-c3ccncc3)c2-c2nc3ccccc3[nH]2)cc1 [CBK262180] | 99.1223 |
| CCN(CC)CCO/N=C1\CC2(CCCCC2)c2ccccc21 [CBK013325] | 42.2099 |
| CC(C)NC(=O)CN(C)Cc1nc(-c2cccc(C(F)(F)F)c2)no1 [CBK306036] | 66.3273 |
| CCN1CCN(C(=O)c2ccccc2N(Cc2ccccc2)S(=O)(=O)c2ccc(C)cc2)CC1 [CBK266827] | 102.995 |
| Cc1nn(C)c(Cl)c1S(=O)(=O)Nc1nn(Cc2ccc(C#N)cc2)c2ccccc12 [CBK048185] | 91.2327 |
| O=C(O)CCCCCNC(=S)Nc1cccc(Cl)c1 [CBK288446] | 55.3363 |
| O=C(O)C1CCCN1C(=O)Nc1ccccc1Cl (stereo not shown) [CBK161381] | 51.8272 |
| COC(=O)c1c(NC(=O)C(Sc2ccccc2)c2ccccc2)sc2c1CCC(C(C)(C)C)C2 (stereo not shown) [CBK262603] | 95.1338 |
| COc1ccc(Br)cc1/C=N/Nc1nc(NCc2ccccc2)nc(N2CCOCC2)n1 [CBK261232] | 97.7372 |
| Cc1ccc(-c2nnc(CNC(=O)Cc3ccc(F)cc3)o2)s1 [CBK284645] | 102.252 |
| COC(=O)c1cn(C(=O)CCCN2C(=O)c3ccccc3C2=O)c2ccccc12 [CBK266799] | 111.986 |
| O=S(=O)(Nc1ccc2[nH]ccc2c1)c1ccc(Br)cc1F [CBK153510] | 97.6395 |
| O=C(O)CCC(=O)NN1C(=O)c2ccccc2NC1c1ccc(F)cc1 (stereo not shown) [CBK286905] | 76.9373 |
| O=[N+]([O-])c1ccc(Sc2nnc(COc3ccccc3)n2-c2ccccc2)nc1 [CBK265041] | 66.226 |
| CN1CCN(C(=O)c2ccccc2N(Cc2ccccc2)S(C)(=O)=O)CC1 [CBK266267] | 102.334 |
| Oc1cc(C(F)(F)F)nc(SCc2ccc(Cl)cc2)n1 [CBK002305] | 100.642 |
| CCOC(=O)c1ccsc1NC(=O)C1CC=CCC1C(=O)O (stereo not shown) [CBK270291] | 104.722 |
| Cn1cc(-c2nccnc2OC(c2ccccc2)c2ccccc2)cn1 [CBK107073] | 105.314 |

| Structure (SMILES) | % of control remaining |
| --- | --- |
| COc1cc(-c2nccnc2N(C)Cc2ccccc2)cc(OC)c1OC [CBK037424] | 129.304 |
| COc1ccccc1CNc1ccc(C(=O)O)cc1 [CBK078187] | 85.2523 |
| CCOC(=O)c1c(NC(=O)/C=C/C(=O)O)sc2c1CCCCC2 [CBK265299] | 79.6193 |
| CC(C)Nc1nccnc1SCc1ccc(Cl)c(Cl)c1 [CBK103657] | 84.8625 |
| CC(=O)c1ccc(-c2cc(C(=O)NC3CCc4ccccc43)cnc2-c2ccc(Cl)cc2)s1 (stereo not shown) [CBK036762] | 95.098 |
| Cc1csc2c(C3CCN(C(=O)c4ccccn4)CC3)nc(C)n12 [CBK285244] | 98.0513 |
| Nc1ncnc2c1nc(OCc1ccccc1)n2C1CC(O)C(CO)O1 (stereo not shown) [CBK201164] | 107.071 |
| CC(Oc1ccc(Cl)cc1Cl)C(=O)Nc1ccc(O)cc1 (stereo not shown) [CBK264120] | 118.444 |
| CC1CCCN(CC(C)(C)NC(=O)c2cc(C3CC3)on2)C1 (stereo not shown) [CBK281677] | 108.538 |
| Cc1csc(C(Cc2ccsc2)NC(=O)c2scnc2C)n1 (stereo not shown) [CBK285098] | 81.8464 |
| CSc1nnc(SCC(=O)N2CCC(C(F)(F)F)CC2)s1 [CBK057829] | 64.6616 |
| Cc1cc(=O)[nH]c(N/N=C/c2ccc(Cl)cc2Cl)n1 [CBK024387] | 69.9598 |
| Cc1[nH]c2c(C(=O)O)cccc2c1-c1ccccc1 [CBK012486] | 115.847 |
| Cn1ccnc1C1(O)CCN(C(=O)C2(c3ccccc3)CC2)CC1 [CBK283538] | 87.5033 |
| Cc1cc(C)nc(N/C(=N\C(=O)c2ccccc2)N2CCC(C(N)=O)CC2)n1 [CBK263910] | 66.7926 |
| O=C(c1ccc(F)cc1)c1ccc(CSc2nnc3sc4ccccc4n23)cc1 [CBK265553] | 92.4614 |
| CCCCN(C(=O)C(F)(F)c1ccccc1)c1c(N)n(CCC)c(=O)[nH]c1=O [CBK297769] | 81.184 |
| COc1ccc([C@@]23CC[C@@H](NC(=O)Nc4ccc(F)c(F)c4)C[C@@H]2N(C)CC3)c(F)c1OC [CBK067405] | 49.1051 |
| CC1(C)CC(=O)C2=C(C1)NC(Nc1nc3ccccc3o1)=NC2c1ccccn1 (stereo not shown) [CBK269978] | 65.5777 |
| CC1(C)Sc2nc3ccccc3n2C1=O [CBK022971] | 45.7152 |
| CONc1nc(/N=C/N(C)C)nc2c1ncn2C1CC(O)C(CO)O1 (stereo not shown) [CBK201335] | 141.467 |
| CC(Cc1cnccn1)NC(=O)Nc1cc(N2CCOCC2)ccc1Cl (stereo not shown) [CBK306954] | 44.2545 |
| COC(=O)c1ccc2c(=O)n(CCN3CCOCC3)c(=S)[nH]c2c1 [CBK268553] | 64.4344 |
| COC(=O)/N=C1/Nc2ccccc2CN1CC(N)=O [CBK007160] | 82.2965 |
| N=c1n(-c2ccccc2)c(O)c(C(c2ccncc2)c2c(O)n(-c3ccccc3)c(=N)n(-c3ccccc3)c2=O)c(=O)n1-c1ccccc1 (stereo not shown) [CBK261438] | 110.818 |
| COc1ccc(C(=O)NC(=S)Nc2ccc(N3CCN(C)CC3)cc2)cc1[N+](=O)[O-] [CBK266098C] | 90.9601 |
| CC(=O)Nc1ccc(-c2ccc(COC3CCN(C(=O)c4ccc(Cl)c(Cl)c4)CC3)cc2)cc1 [CBK149215] | 80.2874 |

| Structure (SMILES) | % of control remaining |
| --- | --- |
| CCCS(=O)(=O)n1c(=O)n(CCc2c[nH]c3ccccc23)c2ccccc21 [CBK106515] | 134.384 |
| Cc1nc(Cl)c(C(=O)NCCc2ccc(S(=O)(=O)NC(=O)NC3CCCCC3)cc2)nc1C [CBK011777] | 80.1447 |
| O=C1CN(Cc2ccccc2)C(=O)N1CC1CCCCC1 [CBK162367] | 72.4099 |
| CC(C)c1nc(-c2cc3ccccc3[nH]c2=O)no1 [CBK287964] | 104.623 |
| Cc1ccc(C(C)(C)CC(C)NCc2cccc(C(F)(F)F)c2)o1 (stereo not shown) [CBK262872] | 93.7107 |
| COc1ccc(-c2cc(C(=O)NCC(O)c3ccc4ccccc4c3)cnc2-c2ccccc2)cn1 (stereo not shown) [CBK037562] | 77.2212 |
| CC1(C)[C@H](Cc2cc(CC3CCCCC3)on2)C[C@@H]1NC(=O)C1CCCC1 [CBK289256] | 103.027 |
| COC(=O)c1cn([C@H]2CO[C@H]3[C@@H]2OC[C@@H]3NC(=O)C2CCCCC2)nn1 [CBK289496] | 98.3998 |
| Cc1ccn(CCNC(=O)c2cccc(N3CCCC3=O)c2)n1 [CBK282642] | 116.325 |
| CCn1ncnc1CN1CCN(Cc2ccccc2CO)CC1 [CBK306717] | 84.5768 |
| COc1ccc(-c2ccc(=O)n(CC(=O)NC(C(=O)O)c3ccccc3)n2)c(F)c1 (stereo not shown) [CBK286769] | 61.7956 |
| O=C(c1ccc(OC(F)(F)F)cc1)N1CCC2(CCN(C(=O)c3ccoc3)C2)C1 (stereo not shown) [CBK131735] | 104.068 |
| COc1ccc([C@@]23CCC(NC(=O)CCc4cccnc4)C[C@@H]2N(C)CC3)cc1OC (stereo partly shown) [CBK003770] | 74.6835 |
| O=C(NCc1ccc(Cl)cc1)N1CCN(CCc2ccccc2)CC1 [CBK158922] | 65.4086 |
| CC(C)c1ccc(S(=O)(=O)Nc2ccc(C(=O)O)c(O)c2)cc1 [CBK299819] | 108.042 |
| O=C1NCCc2c1[nH]c1ccccc21 [CBK101624] | 63.8465 |
| CN1CCN(S(=O)(=O)c2ccc(Oc3ccc([N+](=O)[O-])cc3)cc2)CC1 [CBK262248] | 50.2667 |
| FC(F)(F)c1ccnc(OCc2ccc(Cl)c(Cl)c2)c1 [CBK116623] | 88.7144 |
| C=Cn1ncc(CN2C3CCC2CC(O)(c2ccc(F)cc2)C3)c1C (stereo not shown) [CBK282738] | 113.437 |
| Cc1ccc(NC(=O)OCCN2CCN(C)CC2)c(C)n1 [CBK200135] | 93.1923 |
| O=C(CSc1nnc(-c2ccncc2)n1Cc1ccccc1)Nc1ccc(Cl)cc1 [CBK269346] | 115.822 |
| COC(=O)CSc1nnc(CSc2cc(C)nc(N3CCOCC3)n2)o1 [CBK007059] | 88.1753 |
| O=C(O)c1ccc(-c2ccc(OC(F)(F)F)cc2)nc1 [CBK160173T] | 83.9319 |
| c1ccc2c(CCNc3nccnc3-c3ccoc3)c[nH]c2c1 [CBK036743] | 73.3471 |
| O=C(c1cncs1)N1CCn2nc(C(O)Cc3ccccc3)cc2C1 (stereo not shown) [CBK306754] | 76.6053 |

Source: article PMC12040169 (PLOS Biology, 2025)
